Data reported in PubChem BioAssay AID1460 (National Center for Advancing Translational Sciences (NCATS), 2008).
Values joined by “and” are separate entries in the source; they are usually repeats but may differ in a detail not shown here. Equal entries are not always repeated. Among all 270,000 compounds or so, about 5,800 (2.1%) were called active. The shares of active, inactive and inconclusive entries below differ from those in the screen. Calls follow the shape of the dose curve; as a rule, active = well fitted inhibition curve with a large enough effect; inconclusive = small, poorly fitted or top-dose-only effect; inactive = flat fitted curve, though single readings scatter. Potencies of inconclusive entries are doubtful fits and often do not repeat.

What follows are compounds tested against Microtubule-associated protein tau (Homo sapiens) (UniProt P10636) (assay: qHTS for Inhibitors of Tau Fibril Formation, Thioflavin T Binding). Conditions: recombinant tau K18 P301L (four-repeat tau fragment), heparin-induced fibrillization, ThT fluorescence; series mostly up to 57.4 µM; activity, negative = inhibition: at the top concentration.
How it was run: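 K18 P301L tau (15 uM + 0.24 uM Alexa 594-tagged), heparin 20 uM, NaOAc pH 7, 6 h 37 C; ThT 30 uM, 1 h RT, ex 450/em 510 nm.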
% is scaled to controls: 0 for no effect and ±100 for the full control effect; potency is read from the fitted curve at half-maximal effect; tags tell the direction and shape of the fitted curve.
Also: nearly all actives have a fitted effect of over 55% in size.

Sequence of UniProt P10636 (P10636 whole entry, looked up, the tested form may be a part): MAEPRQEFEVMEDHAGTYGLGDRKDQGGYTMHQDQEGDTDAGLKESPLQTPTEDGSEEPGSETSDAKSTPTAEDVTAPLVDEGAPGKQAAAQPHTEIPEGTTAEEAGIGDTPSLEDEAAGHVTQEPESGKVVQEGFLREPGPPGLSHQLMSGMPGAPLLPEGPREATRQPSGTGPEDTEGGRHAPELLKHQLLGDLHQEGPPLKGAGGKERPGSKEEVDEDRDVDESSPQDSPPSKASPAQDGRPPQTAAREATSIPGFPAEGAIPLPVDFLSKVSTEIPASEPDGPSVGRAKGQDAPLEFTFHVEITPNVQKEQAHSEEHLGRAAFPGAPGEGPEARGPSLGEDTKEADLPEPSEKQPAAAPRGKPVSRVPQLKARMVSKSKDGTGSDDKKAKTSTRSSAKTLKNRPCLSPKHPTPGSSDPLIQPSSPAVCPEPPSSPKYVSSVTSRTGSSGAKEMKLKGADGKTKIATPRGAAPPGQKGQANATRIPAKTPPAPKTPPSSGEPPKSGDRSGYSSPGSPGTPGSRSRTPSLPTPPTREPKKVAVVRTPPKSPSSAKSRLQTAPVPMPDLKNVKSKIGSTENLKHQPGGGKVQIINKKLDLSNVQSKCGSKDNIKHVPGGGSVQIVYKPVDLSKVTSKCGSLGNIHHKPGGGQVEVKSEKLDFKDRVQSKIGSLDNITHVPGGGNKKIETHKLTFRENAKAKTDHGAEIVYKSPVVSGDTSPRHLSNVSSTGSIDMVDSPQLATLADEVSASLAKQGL

Structure (SMILES) | Potency | activity, negative = inhibition
Cc1ccc(-n2sc3ccccc3c2=O)cc1 | active: 31.6 µM | –
CC(=O)O[C@@H]1CN2CCC1CC2 | – | inactive: 0.31%
CCC(=NCCCN1CCOCC1)c1c(O)n(Cc2ccccc2)c(=O)[nH]c1=O | – | inactive: -21.6%
Cc1ccc2c(c1)N(CCC(=O)N1CCC3(CC1)OCCO3)C(=O)CO2 | – | inactive: -2.56%
CC(C)(C)NC(=S)N1CCn2cccc2C1c1cccnc1 (stereo not drawn) | inconclusive: 39.8 µM [inhibitor, single point] | –
COc1ccccc1OCCCn1cc(C(=O)c2ccco2)c2ccccc21 | inconclusive: 22.4 µM [inhibitor, partial curve, poor fit] | –
CCOc1cc(-c2ccc(N)c(OCC)c2)ccc1N | inconclusive: 15.8 µM [inhibitor, partial curve] | –
CCOP(=O)(OCC)C(NC(=O)c1ccc(C)cc1)C(Cl)(Cl)Cl (stereo not drawn) | inconclusive: 3.16 µM [inhibitor, single point] | –
C/C(=N\NC(=S)Nc1ccccc1)c1c(O)n(C)c(=O)n(C)c1=O | inconclusive: 39.8 µM [inhibitor, single point] | –
CCCCC/C=C\C/C=C\C/C=C\C/C=C\CCCC(=O)NCCCC(=O)O | inconclusive: 39.8 µM [inhibitor, partial curve, poor fit] | –
CCCn1c(C)c(C(=O)c2cccc3ccccc23)c2ccccc21 | inconclusive: 39.8 µM [inhibitor, single point] | –
CNc1ccc2oc(C[C@@H]3OC4(CC[C@@H]3C)O[C@H]([C@@H](C)C(=O)c3ccc[nH]3)[C@H](C)C[C@H]4C)nc2c1C(=O)O (stereo partly drawn) | active: 31.6 µM | –
COC(=O)c1c(N)n(Cc2ccc(OC)cc2)c2nc3ccccc3nc12 | – | inactive: 3.45%
CCC1/C=C/C=CCC(C)C(O)[C@@](C)(O)C(=O)C(C)C(O)C(C)C(=O)C(C)C(O)C(C)C=CC(=O)O[C@H]2C(C)C(CC1)O[C@]1(CCC(C)C(CC(C)O)O1)C2C (stereo partly drawn) | inconclusive: 22.4 µM [inhibitor, partial curve] | –
COc1ccccc1-n1c(-c2ccoc2)nc2ccccc2c1=O | – | inactive: -9.64%
Cc1cccc2c3c(ccc12)C1=C(C(=O)C3=O)C(C)CO1 (stereo not drawn) | active: 7.94 µM | –
CCOC(=O)C(NC(C)=O)C(OC(C)=O)c1cccc(N(CCCl)CCCl)c1 (stereo not drawn) | – | inactive: 12.9%
CN(C)[C@@H]1C(=O)C(C(N)=O)=C(O)[C@@]2(O)C(=O)C3=C(O)c4c(O)cccc4[C@@](C)(O)[C@H]3[C@H](O)[C@@H]12 | active: 6.31 µM | –
C=CCNC(=O)c1c(N)n(Cc2ccco2)c2nc3ccccc3nc12 | inconclusive: 25.1 µM [inhibitor, partial curve] | –
CCN1C(=O)/C(=C/c2ccc3c(c2)CCN3CCCCl)C(=O)NC1=S | active: 17.8 µM | –
Cc1cccc(N2C(=O)NC(=O)/C(=C/c3ccc(-c4ccc(C(=O)O)c(Cl)c4)o3)C2=O)c1 | inconclusive: 3.55 µM [inhibitor, full curve] | –
O=C(O)C1Sc2[nH]c(=O)sc2C2c3cc(Cl)ccc3OC(=O)C12 (stereo not drawn) | active: 22.4 µM | –
CN1CCN(c2ccc(N)cc2)CC1 | active: 25.1 µM | –

Structure (SMILES) | Potency | activity, negative = inhibition
CN1C(=O)/C(=C\N2CCc3ccccc32)C(=O)NC1=S | inconclusive: 17.8 µM [inhibitor, single point] | –
CC(=O)N1CCN(c2ccc(N=Cc3c(O)n(-c4ccc(Cl)cc4)c(=O)[nH]c3=O)cc2)CC1 | inconclusive: 25.1 µM [inhibitor, partial curve] | –
CCOc1ccc(-n2c(O)c(N=Nc3ccc([N+](=O)[O-])cc3)c(=O)[nH]c2=O)cc1 | inconclusive: 22.4 µM [inhibitor, partial curve] | –
O=C(Nc1ccc(N2CCOCC2)cc1)Nc1ccc2nsnc2c1 | inconclusive: 44.7 µM [inhibitor, single point] | –
CCOc1ccc(-c2nc3cc(NC(=O)COc4cccc(C)c4)ccc3o2)cc1 | inconclusive: 0.708 µM [inhibitor, full curve] | –
Cc1nn(-c2ccccc2)c(Cl)c1C1C(C#N)=C(N)Oc2c1c(=O)oc1ccccc21 (stereo not drawn) | – | inactive: -17.4%
CN(C)c1ccc(/C=C/C=C2/C(=O)NC(=O)N(c3ccccc3)C2=O)cc1 | active: 3.98 µM | –
O=C1C=CC(=O)C=C1 | – | inactive: -6.01%
Cc1ccccc1-n1c(O)c(/C=N/NC(=O)c2ccncc2)c(=O)[nH]c1=O | – | inactive: -11%
CC1CCCCN1CC(=O)c1ccc2cc[nH]c2c1 (stereo not drawn) | inconclusive: 20 µM [inhibitor, partial curve] | –
[O-]C1=N/[N+](=C/c2ccc(Cl)cc2)CC1 | inconclusive: 39.8 µM [inhibitor, single point] | –
Cc1cc(/C=C2\C(=O)NC(=O)N(c3ccc(Cl)cc3)C2=O)c(C)n1-c1sc2c(c1C#N)CCCC2 | inconclusive: 14.1 µM [inhibitor, partial curve] | –
Cc1ccc(NC(=O)Cn2cc(C(=O)c3ccccc3)c3ccccc32)cc1 | – | inactive: 5.25%
COc1ccc(/C=N/N=C(/N)N[N+](=O)[O-])c(OC)c1 | – | inactive: -14.7%
CCOC(=O)N(c1ccccc1)P1(=S)OCCO1 | inconclusive: 31.6 µM [inhibitor, single point] | –
O=C1N=C(N2CCCCC2)SC1=C1CCCCC1 | inconclusive: 35.5 µM [inhibitor, partial curve] | –
Nc1ccc2c(c1)oc1ccccc12 | inconclusive: 17.8 µM [inhibitor, partial curve] | –
C=CCn1c(=O)c(C=Nc2cccc([N+](=O)[O-])c2)c(O)n(CCCC)c1=O | inconclusive: 12.6 µM [inhibitor, partial curve] | –
Cc1nn(-c2ccccc2)c2c1P(=O)(O)/C(=C1\N(C)c3ccccc3C1(C)C)C=N2 | inconclusive: 15.8 µM [inhibitor, single point] | –
C[N+]1=C(/C=C/Nc2ccccc2)C(C)(C)c2ccccc21 | – | inactive: -1.54%
Cc1cccc(-n2c(O)c(/C=N/Nc3nc4c(c(=O)n(C)c(=O)n4C)n3C)c(=O)[nH]c2=S)c1 | active: 12.6 µM | –
CCOc1ccc(N2C(=O)NC(=O)/C(=C\c3cc(OC)c(OC)cc3[N+](=O)[O-])C2=O)cc1 | active: 14.1 µM | –
CC(C)c1oc(=O)cc2c1[C@@H](O)[C@H]1OC(=O)[C@@]3(C)CC[C@@H](O)[C@@]2(C)C13 (stereo partly drawn) | – | inactive: -1.71%

Structure (SMILES) | Potency | activity, negative = inhibition
CN1C(=O)C(=Cc2ccc(N3CCCCCC3)cc2)C(=O)N(C)C1=O | inconclusive: 3.55 µM [inhibitor, partial curve, poor fit] | –
CC(C)C12CN3CC(C(C)C)(CN(C1)C3c1ccccn1)C2=O (stereo not drawn) | – | inactive: -0.495%
CCOc1ccc(NC(=O)Cn2cc(C(=O)c3ccccc3)c3ccccc32)cc1 | inconclusive: 15.8 µM [activator, partial curve, poor fit] | –
CCC1CN2CCC1CC2C(O)c1ccnc2ccccc12 (stereo not drawn) | – | inactive: 1.75%
Cc1cccc(N(C)S(=O)(=O)c2cc(-c3cnc(C4CC4)o3)ccc2C)c1 | inconclusive: 7.94 µM [inhibitor, partial curve] | –
COC(C)C(O)(C(=O)OC1=CCN2CC[C@H](O)[C@H]12)C(C)C (stereo partly drawn) | – | inactive: -3.58%
CCOC(=O)c1c(C)n(Cc2ccccc2)c2ccc(OCC(O)Cn3nc(C)nc3C)cc12 (stereo not drawn) | inconclusive: 17.8 µM [inhibitor, single point] | –
O=c1[nH]c(=S)[nH]c(O)c1N=Nc1ccc(S(=O)(=O)N2CCOCC2)cc1 | inconclusive: 15.8 µM [inhibitor, partial curve] | –
COC(=O)CCc1nc2c(C#N)c(-c3ccc(Cl)cc3)ccn2n1 | inconclusive: 12.6 µM [inhibitor, partial curve] | –
S=P(Nn1cnnc1)(c1ccc(Br)cc1)c1ccc(Br)cc1 | inconclusive: 39.8 µM [inhibitor, single point] | –
Cc1cc(/C=C2\C(=O)NC(=O)N(c3cccc(F)c3)C2=O)c(C)n1-c1cc(C(=O)O)cc(C(=O)O)c1 | inconclusive: 6.31 µM [inhibitor, partial curve] | –
Cc1cccc(Cn2cccc(C(=O)Nc3ccc4c(c3)OCCO4)c2=O)c1 | inconclusive: 14.1 µM [inhibitor, partial curve] | –
Cc1ccccc1N1C(=O)NC(=O)/C(=C\c2cc(Br)c(N3CCOCC3)o2)C1=O | active: 15.8 µM | –
COC(=O)c1c(C)n(Cc2ccco2)c2ccc(O)cc12 | – | inactive: -15.1%
Cc1cccc(N2C(=O)NC(=O)/C(=C/c3ccc(N4CCOCC4)cc3)C2=O)c1 | inconclusive: 3.98 µM [inhibitor, partial curve] | –
CC(=O)c1c(O)c(C)c(O)c(Cc2c(O)c3c(c(C(=O)/C=C/c4ccccc4)c2O)OC(C)(C)C=C3)c1O | active: 15.8 µM and active: 17.8 µM and active: 12.6 µM | –
CCc1nnc(NC(=O)CSc2ccc(-c3ccco3)nn2)s1 | inconclusive: 39.8 µM [inhibitor, single point] | –
O=C1C2CCCN2C(c2cccnc2)N1c1nccs1 (stereo not drawn) | inconclusive: 1.41 µM [inhibitor, full curve, poor fit] | –
CC1CC2OC2/C=C\C=C/C(=O)Cc2c(Cl)c(O)cc(O)c2C(=O)O1 (stereo not drawn) | inconclusive: 7.08 µM [inhibitor, partial curve] | –
COc1ccc(C2CC(c3c(O)n(CCc4ccccc4)c(=O)[nH]c3=O)=NN2)cc1OC (stereo not drawn) | inconclusive: 12.6 µM [inhibitor, partial curve] | –
C[C@]12CC[C@@H]3c4cc(O)c(O)cc4CC[C@H]3[C@@H]1CC[C@@H]2O | inconclusive: 14.1 µM [inhibitor, partial curve] | –
CC(=O)OC1C[C@@]2(C)C(c3ccoc3)C[C@H]3O[C@@]32[C@@]2(C)C(=O)C(O)=C3C(C)(C)C(=O)C=C[C@]3(C)C12 (stereo partly drawn) | active: 8.91 µM | –
